Measurements as given in PubChem BioAssay AID1345082 (National Center for Advancing Translational Sciences (NCATS), 2018).
About 4,000 (4.3%) of roughly 94,000 compounds were called active. The shares of active, inactive and inconclusive entries below differ from those in the screen. Calls follow the shape of the dose curve; as a rule, active = well fitted inhibition curve with a large enough effect; inconclusive = small, poorly fitted or top-dose-only effect; inactive = no such curve, though single readings can be large or run the other way. Potencies beside an inconclusive call are fits to weak or partial responses and may not hold up.

assay: Cytotoxic Profiling in NIH 3T3 Cell Line of Diverse Libraries Using Quantitative High-Throughput Screening; settings: NIH 3T3 viability, CellTiter-Glo ATP luminescence, 48-72 h; activity change, negative = cytotoxicity: at 96.7 µM (top of the series) unless noted; series mostly up to 96.7 µM; also: nearly all actives have a fitted effect of over 55% in size
In short: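 First NIH 3T3 cells are plated at 400 cells/well; next compound is pinned in; then plates incubate 48 or 72 hr at 37 °C; finally CellTiter-Glo is added and luminescence read after 10 min.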
% is scaled to controls: 0 for no effect and ±100 for the full control effect; potency is read from the fitted curve at half-maximal effect; tags tell the direction and shape of the fitted curve.

| Structure (SMILES) | activity change, negative = cytotoxicity | Potency |
| --- | --- | --- |
| COc1ccc(CCC(=O)N2CCCCCCNC(=O)[C@@H]3CCC[C@@H]32)cc1 | inactive: 1.7% |  |
| Cn1nc(-c2nncn2-c2ccccc2)c2c1CCN(C(=O)C1CCOCC1)C2 | inactive: 4.9% |  |
| O=C(Nc1cccnc1)c1ccnc(-c2nnc3ccc(N4CCOCC4)nn23)c1 |  | active: 100 µM |
| O=C1CN(C(=O)c2csc3nc(-c4ccc(C(F)(F)F)cc4)cn23)CCCN1 |  | inconclusive: 79.4 µM [inhibitor, partial curve, poor fit] |
| COc1ccccc1Nc1ccnc(N2CCCC(C(=O)N(C)C)C2)n1 (stereo unspecified) |  | inconclusive: 44.7 µM [inhibitor, partial curve, poor fit] |
| O=C1N(Cc2ccc(F)cc2)C[C@H]2CN(Cc3ccncc3F)CCN12 |  | inconclusive: 63.1 µM [inhibitor, partial curve, poor fit] |
| CC(=O)NC1CCN(c2nc(-c3cccnc3)nc3c2cnn3C)C1 (stereo unspecified) |  | inconclusive: 70.8 µM [inhibitor, partial curve, poor fit] |
| CCOCC(=O)N1CCCCCNC(=O)[C@@H]2CCCC[C@@H]21 |  | inconclusive: 70.8 µM [inhibitor, single point] |
| CC(C)(Oc1nn(CCN2CCOCC2)c2ccccc12)C(=O)NCCCn1ccnc1 |  | inconclusive: 89.1 µM [inhibitor, partial curve] |
| O=C1C2CN(Cc3ccc4[nH]ccc4c3)CCC2OCCN1Cc1ccccc1F (stereo unspecified) |  | inconclusive: 89.1 µM [inhibitor, partial curve, poor fit] |
| FC(F)(F)CN1C2CCC1CN(c1ccc(-c3ccccc3)nn1)C2 |  | inconclusive: 39.8 µM [inhibitor, partial curve] |
| Cc1ccc(-c2ccc3nnc(CNC(=O)COc4ccccc4)n3n2)cc1C | inactive: -27% |  |
| NC(=O)[C@@H]1C[C@H](Oc2cccnc2)CN1S(=O)(=O)c1cccnc1 | inactive: -8.1% |  |
| Cc1cccc(NC(=O)Cn2cccc2-c2nc(-c3ccc(F)cc3)no2)c1 |  | inconclusive: 31.6 µM [inhibitor, partial curve] |
| Cc1cccc(C(=O)N2C(C(=O)NCc3ccccc3)COC23CCC(C)CC3)c1 (stereo unspecified) |  | inconclusive: 44.7 µM [inhibitor, partial curve, poor fit] |
| CCc1cc(NCCc2nc(C)cs2)n2nccc2n1 | inactive: -11.3% |  |
| O=C(Nc1ccccc1)[C@@H]1C[C@@H](c2ccc(F)cc2)N([S+](=O)([O-])c2ccccc2)C1 |  | inconclusive: 31.6 µM [inhibitor, full curve] |
| O=C(CN1CCOCC1)N1CCC(N2C(=O)C3(CCCC3)C2c2ccccc2)CC1 (stereo unspecified) | inactive: -14.3% |  |
| O=C(NC1Cc2ccccc2C1)c1ccc2nnc(C3CCOCC3)n2c1 | inactive: -29.6% |  |
| Cc1ccc(NC(=O)CC2CCCN(c3cnn(C)c(=O)c3)C2)cc1F (stereo unspecified) |  | inconclusive: 70.8 µM [inhibitor, partial curve, poor fit] |
| CNC(=O)CCn1ncc2cc(OC3CCc4cccc(-c5cccc(F)c5)c43)ccc21 (stereo unspecified) |  | inconclusive: 79.4 µM [inhibitor, partial curve, poor fit] |
| COc1ccc(-c2cnc3[nH]cc(CC(=O)Nc4ccc(OC)nc4)c3c2)cc1 |  | inconclusive: 35.5 µM [inhibitor, partial curve, poor fit] |

| Structure (SMILES) | activity change, negative = cytotoxicity | Potency |
| --- | --- | --- |
| Cc1cccc(NC(=O)CN2C(=O)NC(c3ccc(Cl)cc3)C3=C2COC3=O)c1C (stereo unspecified) |  | inconclusive: 70.8 µM [inhibitor, partial curve, poor fit] |
| CC(=O)N1CCN(c2cc(-c3noc([C@@H]4CCCN4Cc4ccccc4C)n3)ccn2)CC1 |  | inconclusive: 50.1 µM [inhibitor, partial curve, poor fit] |
| Cc1ccc(C2=NC3(CCN(C(=O)c4ccc5[nH]ccc5c4)CC3)ON2)cc1 |  | inconclusive: 63.1 µM [inhibitor, partial curve, poor fit] |
| O=C(NCc1nnc2c(-c3nc(C4CC4)no3)cccn12)c1ccc(F)cc1 | inactive: -24.6% |  |
| CCCn1cc(CNC(=O)c2cc3c(s2)CCC(C)C3)cn1 (stereo unspecified) |  | inconclusive: 14.1 µM [inhibitor, full curve] |
| COc1ccc(OC2CCN(C(C)=O)CC2)c(C(=O)N2C[C@@H]3CCC[C@H]2C3)c1 | inactive: 1.65% |  |
| O=C(COc1ccccc1)N1CCCC1c1nc(CCOCC2CCOCC2)no1 (stereo unspecified) | inactive: -15.4% |  |
| Cc1ccc(N2CCC(N[C@@H]3CC[C@@H](N)C3)CC2)cc1Cl |  | active: 10 µM |
| COCCNCc1ccc(-c2ccc(F)cc2)o1 | inactive: -1.4% |  |
| O=C(NCc1cccnc1)c1ccc2nnc(-c3cccc(C(F)(F)F)c3)n2c1 |  | inconclusive: 39.8 µM [inhibitor, partial curve] |
| COc1ccc(F)cc1-c1cccc(C(=O)NCC(=O)NCCc2ccc(F)cc2)c1 |  | inconclusive: 50.1 µM [inhibitor, partial curve, poor fit] |
| CC(C)c1ccc([S+](=O)([O-])N2CCN(c3cccc(CN(C)[S+](C)(=O)[O-])c3F)CC2)cc1 |  | active: 35.5 µM |
| O=C1CCN(CC(O)COc2ccccc2)c2ccsc2CN1Cc1ccccc1 (stereo unspecified) |  | inconclusive: 44.7 µM [inhibitor, partial curve, poor fit] |
| Cc1nc2c(c(-c3ccc(Cl)cc3)n1)CCN(C(=O)C(C)(C)C)CC2 |  | inconclusive: 44.7 µM [inhibitor, partial curve, poor fit] |
| CC(=O)N1CCN(C(=O)c2nc3sccn3c2-c2ccc(C)cc2)CC1 | inactive: -13.5% |  |
| O=C1NC(=NC2CCCC2)C2(CCN(Cc3ccccc3)C2)N1c1cc(F)cc(F)c1 (stereo unspecified) |  | inconclusive: 70.8 µM [inhibitor, partial curve, poor fit] |
| Cn1cnc(S(=O)(=O)NCC2Cn3cccc3CN2Cc2ccccc2)c1 (stereo unspecified) |  | inconclusive: 50.1 µM [inhibitor, partial curve, poor fit] |
| O=C(c1cccc2[nH]ccc12)N1CC[C@@H]2COCCN(Cc3cccnc3)[C@@H]2C1 |  | inconclusive: 50.1 µM [inhibitor, partial curve, poor fit] |
| COCc1ccc2c(c1)c(OC(C)(C)C(=O)N(C)C)nn2Cc1ccccc1 |  | inconclusive: 89.1 µM [inhibitor, partial curve] |
| Cc1cccc(-c2nc(CN3CCC(c4nc(-c5cccn5C)no4)C3)no2)c1 (stereo unspecified) |  | inconclusive: 44.7 µM [inhibitor, partial curve, poor fit] |
| COc1ccc(-c2cc(N3CCC(NC(=O)COc4cccc(C)c4)CC3)n[nH]2)cc1 |  | active: 39.8 µM |
| CCC(=O)N1CCN(c2nc3c(s2)CC(C(=O)NCc2ccccc2)CC3)CC1 (stereo unspecified) | inactive: -25.6% |  |

| Structure (SMILES) | activity change, negative = cytotoxicity | Potency |
| --- | --- | --- |
| CN(c1ccccc1)c1ccc2nnc(-c3cc(C(=O)N4CC(O)C4)ccn3)n2n1 |  | active: 100 µM |
| O=C(NCCN1CCOCC1)c1c[nH]c2ncccc12 | inactive: -9.36% [at 138 µM] |  |
| CC(C)c1noc(-c2cn(C3CCN(C(=O)c4cc(Cl)ccc4F)C3)nn2)n1 (stereo unspecified) |  | inconclusive: 12.6 µM [inhibitor, full curve] |
| NCc1ccc(-c2ccc(F)cc2)cc1 |  | active: 89.1 µM |
| COc1ccc(-c2cnc(Nc3cccnc3)c3c2CCO3)cn1 |  | inconclusive: 44.7 µM [inhibitor, partial curve, poor fit] |
| CCCCn1c(=O)c(C(=O)N2CCN(C(=O)COC)CC2)nc2cccnc21 | inactive: -3.95% |  |
| O=C(NC1CCN(c2cc(-c3ccc(Cl)cc3)[nH]n2)C1)c1ccc2[nH]ccc2c1 (stereo unspecified) |  | active: 39.8 µM |
| CCOc1ccc(NC(=O)c2cc(-c3ccccc3C(F)(F)F)nc3c2cnn3C)cc1 |  | inconclusive: 22.4 µM [inhibitor, full curve] |
| CN1c2cc(C(=O)Nc3cccc(Br)c3)ccc2C(=O)N2CCCCC21 (stereo unspecified) |  | inconclusive: 44.7 µM [inhibitor, partial curve, poor fit] |
| CCc1cc(=O)n(CC(=O)Nc2cc(Cl)ccc2OC)c(N2CCOCC2)n1 |  | inconclusive: 56.2 µM [inhibitor, partial curve, poor fit] |
| CN(Cc1ccccc1)C(=O)[C@H]1C[C@@H](O)[C@H](O)[C@@H]2N=C(Nc3ccc(-n4cccn4)cc3)S[C@@H]21 | inactive: -27.3% |  |
| CC(C)CNC(=O)c1ccc2oc(-c3ccncc3Cl)nc2c1 |  | inconclusive: 89.1 µM [inhibitor, partial curve, poor fit] |
| C=CCNC(=O)N[C@H]1CCN(C(=O)CC(C)(C)C)[C@@H]1C(=O)N[C@@H](Cc1cccs1)C(N)=O | inactive: -9.86% |  |
| CCc1nc2c(c(-c3ccc(Cl)cc3)n1)CN(Cc1ccccc1)CC2 |  | active: 10 µM |
| COc1ccc(Cl)cc1C(=O)N[C@@H]1CN(c2ncccn2)C[C@H]1CN(C)C | inactive: -10.7% |  |
| O=C(CC1CCCCN(Cc2ccccc2)C1=O)N1CCc2ccccc2C1 (stereo unspecified) |  | inconclusive: 44.7 µM [inhibitor, partial curve, poor fit] |
| Cc1ccc2oc(C(=O)N(C)Cc3nc(-c4cccnc4)no3)c(C)c2c1 |  | inconclusive: 56.2 µM [inhibitor, partial curve, poor fit] |
| COc1cccc(C(CC(=O)NCc2ccc3c(c2)OCO3)c2c[nH]c3ccccc23)c1OC (stereo unspecified) |  | inconclusive: 50.1 µM [inhibitor, partial curve, poor fit] |
| Cc1ccc(NC(=O)Cn2ccn3nc(-c4ccccc4)c(CO)c3c2=O)c(C)c1 |  | inconclusive: 79.4 µM [inhibitor, partial curve, poor fit] |
| O=C1NCc2ccccc2CC12CCN(Cc1ccc(-c3ccccc3)cc1)C2 (stereo unspecified) |  | active: 35.5 µM |
| Cc1nc(-c2ccccc2)n(Cc2ccccc2Cl)c(=O)c1CCO |  | active: 44.7 µM |
| CCN1c2cc(C(=O)Nc3ccc(Oc4ccccc4)cc3)ccc2C(=O)N2CCCCC21 (stereo unspecified) |  | active: 31.6 µM |
